# Whole data set: some 33,000 sequences, median “E-score (dimensionless, -0.5 to 0.5)” near -0.058, cut for the highest 2% near 0.35. Some of the results follow.
# System: MvaT
# Test: PBM 8-mer E-score (mean of HK and ME arrays) (E-score (dimensionless, -0.5 to 0.5)); higher = stronger relative binding preference; most listed sequences are background and not binding sites
# Outline: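 Full-length P. aeruginosa MvaT, with glutathione S-transferase fused to its N-terminus (cloned into pTH6838 by isothermal assembly), was tested by protein binding microarray using a previously described protocol. Two universal double-stranded 60-mer arrays (ME and HK) were used, each with a constant 25-mer primer region and a variable 35-mer region covering all 8-mers. The rank-based 8-mer E-score (-0.5 to 0.5) is the mean of the two arrays, parsed with a custom Python script.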
row,Sequence,PBM 8-mer E-score
1,CATCATAA,0.166
2,CGACATTC,-0.172
3,AGAGTACT,0.133
4,CAACTTGG,-0.0273
5,AGGGTGAG,-0.0976
6,AGGGTGAC,-0.163
7,GACCTTAA,0.0512
8,CTATATCC,0.123
9,ATATCCTC,0.0982
10,CCCTGGCG,-0.342
11,CTCGTGCC,-0.31
12,AGGCAATG,0.0344
13,ATTCATAA,0.251
14,CCGCACAG,-0.019
15,CGGCAAGC,-0.3
16,ATAAACTC,0.269
17,ACCTATTA,0.263
18,ACAAGCCA,-0.127
19,CAGTATCG,-0.0136
20,CCATGACA,-0.163
21,CTGCTGGA,-0.0606
22,CTGAGCAC,-0.21
23,AGTCCTGC,-0.267
24,CCCCCTGC,-0.343
25,AACTATCT,0.215

row,Sequence,PBM 8-mer E-score
1,CTATTCGC,0.00255
2,GTAATCAA,0.121
3,AAGGGGTC,-0.178
4,GCAGACGC,-0.189
5,GAGGTACA,-0.151
6,CTCGTCGA,-0.0694
7,GCCTCCCC,-0.263
8,AACTGAAT,0.187
9,GTAACGTA,0.104
10,CTTTATCC,0.159
11,ATTGGCTA,0.0173
12,AATTCTAG,0.157
13,CAAGCAAC,-0.196
14,ACCGAAGA,-0.00581
15,CTCGGCAA,-0.0663
16,AGGATACC,-0.202
17,AGGCACTA,-0.101
18,AGCTAGCG,-0.184
19,ATACGTCC,-0.0038
20,AATCAATT,0.246
21,AAACACGT,-0.000832
22,AGGTGGAA,-0.00313
23,CCTATAAG,0.0158
24,ACAAGTCG,-0.0351
25,ACAGATCC,-0.141

row,Sequence,PBM 8-mer E-score
1,AGTTTAGA,0.197
2,GACGGGAA,0.0205
3,GAAGTCCC,-0.141
4,TGTACCAA,0.0155
5,ACCGGCCG,-0.116
6,GAACCCAC,-0.119
7,CATTTCTA,0.0518
8,AGAGTTGA,0.00339
9,AGATTTCG,0.0192
10,ATGATACG,0.00711
11,CTCTGGCC,-0.204
12,GTGACCAA,-0.0538
13,GACGTGCA,-0.104
14,CCCTACCC,-0.224
15,GCAAACGC,-0.0755
16,AGATGACT,-0.0245
17,AATATTCG,0.326
18,AGGCCTCG,-0.272
19,GCTTTGAC,-0.0823
20,ACCGGGCC,-0.222
21,ACCGACAC,-0.0129
22,AGGTATAC,0.0641
23,GACGTATC,-0.141
24,CAATCTCG,0.0138
25,AAGGACGA,-0.241

row,Sequence,PBM 8-mer E-score
1,ATGCTCCA,0.00382
2,GAATTCGC,0.0607
3,AAAAGAGG,-0.0661
4,CGACGCCG,-0.301
5,ACTAACAA,0.268
6,TCCAACAA,0.0903
7,TAGTAGGA,-0.0219
8,ATCATCAC,0.0417
9,CCGTAGCG,-0.231
10,TAATTGTA,0.305
11,AGAACCTC,-0.204
12,CTGGGGAA,-0.111
13,CCTCATCC,-0.243
14,CAGGTAGC,-0.0988
15,ACACCGTA,-0.052
16,ACTTCGCA,0.0386
17,TCAAGTGA,-0.00408
18,CTACGGGC,-0.221
19,AAGCATTA,0.0777
20,AATATTGA,0.327
21,TCTCAGAA,-0.0828
22,CAATGCGC,-0.0153
23,TGGGAAAA,0.0302
24,CAGCATTC,-0.0903
25,ATCTGAAC,0.0141

row,Sequence,PBM 8-mer E-score
1,ACTTCTGG,-0.0169
2,AGTCGCTC,-0.255
3,CCAACATA,0.285
4,CAAGTCTG,-0.209
5,CCCTAAGC,-0.305
6,CGTGCGCA,-0.0706
7,CAGGGTGA,-0.101
8,CGATGCTA,-0.067
9,CATGACAC,-0.13
10,CGTCTACA,-0.012
11,AACGGATG,-0.0102
12,GTTCGGTA,-0.00278
13,TGGCCGAA,-0.12
14,CTCTCATA,0.00755
15,ACCAAATA,0.222
16,CGCCACGA,-0.237
17,GCCTGCAC,-0.226
18,ACGCGGGA,-0.148
19,ACTTTGTG,0.0749
20,GTTACATA,0.273
21,CTCCATTA,0.0627
22,AATATAAT,0.449
23,CCGACGAC,-0.128
24,ACCACAAA,-0.0136
25,CCTTAGAC,-0.217

row,Sequence,PBM 8-mer E-score
1,AGGCAGCA,-0.0964
2,AAGGTGAT,0.0321
3,CGTGCCAG,-0.247
4,AACCTCGC,-0.119
5,CCCTCCAG,-0.283
6,GACCGAGA,-0.107
7,GTTGCCGA,-0.147
8,AAGCGTCG,-0.0962
9,ATCGTCCC,-0.191
10,AGCCTACT,-0.0958
11,CCTACGCA,-0.19
12,GCCATCAA,-0.164
13,CGTCTTCC,-0.173
14,TAACTTGA,0.301
15,CGATACGA,-0.174
16,AATAAGAT,0.356
17,TAGCGTGA,-0.142
18,TGGGTACA,-0.183
19,ATCATTTG,0.12
20,GGGTAATA,0.332
21,ACTTTTAT,0.363
22,CATTGAAG,0.0846
23,TTAGCGAA,0.099
24,CGGCTCGC,-0.291
25,CCCTACTA,-0.0833

row,Sequence,PBM 8-mer E-score
1,GATATGTA,0.282
2,CAGCAAAC,0.014
3,ATCTACAC,0.0272
4,CCCGATAG,-0.0101
5,ACTTTGTA,0.192
6,CGGCCTAC,-0.258
7,CGTTATGC,0.0725
8,CTTACTGA,0.0745
9,CAATTCCA,0.0822
10,ACAAAAAG,0.0621
11,CCCCTACC,-0.348
12,CGATGCTC,-0.217
13,TCACTGCA,-0.0296
14,TAAACGGA,0.205
15,AGCCACAG,-0.247
16,GAAGTAGA,-0.0544
17,ACAAGCAT,0.0341
18,ATGCTGAC,-0.154
19,CTGCACTA,0.0832
20,AGGCATAA,-0.0265
21,CAATATAG,0.331
22,AAGTCCGT,0.0247

# Source: the supplement of paper PMC4466236
